Laboratory results as given in patent publication US20260306644A1, “ANTIBODY RECRUITING MOLECULES FOR THE TREATMENT OF CORONAVIRUS DISEASE-19” (priority 2023, published 2026).
Read-outs that look alike come from different tables or passages of the source. For part of these data: At least one peptide structure holds a part that was inferred or is arguable (an end, a ring closure or a residue). For at least one compound, name, drawing or mass did not settle the structure. Positions of bridges follow the written chain, without caps; N, C: chain ends. Non-standard residues stand in square brackets, D forms with d. No end group written: not given here. Tic = O=C(O)[C@@H]1Cc2ccccc2CN1; Aib = CC(C)(N)C(=O)O

Tests used:
[1] = molecular target: native human IgG1; assay: Ligand binding to native human IgG1 by Bio-Layer Interferometry (BLI)
Procedure: The binding of exemplary compounds to native human IgG1 was measured by Bio-Layer Interferometry (BLI) using the ForteBio Octet® 96e platform (Fremont, CA). The binding assay was performed using the Protein L (ProL) Dip and Read Biosensors (ForteBio 18-5085) in a 96-well black flat bottom assay plate (Greiner Bio-One 655209; Monroe, NC) with the following steps: (1) 60 seconds of baseline; (2) 600 seconds of loading with 50 μg/ml of Native Human IgG1 (Abcam ab184886; Cambridge, UK); (3) 60 seconds of baseline; (4) 180 seconds of association with a dilution series of ligand in Assay Buffer (PBS (Gibco 10010; Grand Island, New York), 0.1% (w/v) BSA (American Bio AB01088-00100; Canton, MA), 0.05% (v/v) Tween 20 (Fisher BioReagents™ BP337-500; Pittsburgh, PA), pH 7.4), consisting of seven concentrations. The eighth tip in the column was run in Assay Buffer to serve as a reference sensor, the signal of which was subtracted from the sample sensors. (5) 180 seconds of dissociation in Assay Buffer.
The data was analyzed with the Octet® Data Analysis HT software. The processed data was globally fit to a 1:1 binding model for determination of the equilibrium dissociation constant (KD) and is shown in Table 7.

[2] = test system: Spike RBD coated magnetic beads / RAW 264.7 macrophages; assay: Antibody-dependent cellular phagocytosis (ADCP), RAW 264.7 macrophages and Spike RBD coated magnetic beads, flow cytometry; type: cell-based; settings: 37° C., 2 hours, read-out: SARS-COV-2 ADCP EC50
Method in brief: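 Spike RBD-coated magnetic beads were mixed with RAW 264.7 macrophages (50,000 cells per well) and compounds at set final concentrations. The mixture was incubated 2 hours at 37° C, and bead uptake was measured by flow cytometry.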

[3] = read-out: Octet Native IgG1 Binding KD
[4] = unit pM printed in cell, read-out: Octet Native IgG1 Binding KD (cell printed in pM)

Compound	Octet Native IgG1 Binding KD [1]	Kd [1, 3]	EC50 [2]	Kd [1, 4]
CC[C@H](C)[C@H](NC(=O)[C@H](CC(C)C)NC(=O)[C@H](CC(=O)O)NC(=O)[C@H](CO)NC(=O)[C@@H](NC(=O)[C@H](CCCNC(=N)N)NC(=O)[C@H](CCSC)NC(=O)[C@H](CO)NC(=O)[C@H](C)NC(=O)[C@H](CCC(=O)O)NC(=O)[C@H](C)NC(=O)[C@H](Cc1c[nH]cn1)NC(=O)CNC(=O)[C@H](CC(C)C)NC(=O)[C@H](CCC(=O)O)NC(=O)[C@H](CC(=O)O)NC(=O)[C@H](CC(C)C)NC(=O)[C@H](CC(C)C)NC(=O)[C@H](CCCNC(=N)N)NC(=O)[C@H](CCSC)NC(=O)[C@@H](NC(=O)[C@H](CCC(=O)O)NC(=O)[C@H](Cc1ccc(O)cc1)NC(=O)[C@@H](NC(=O)[C@H](CCCCN)NC(=O)[C@H](CCC(N)=O)NC(=O)[C@H](CC(C)C)NC(=O)[C@@H](NC(=O)[C@H](Cc1c[nH]c2ccccc12)NC(=O)[C@H](CCC(=O)O)NC(=O)[C@H](CCCCN)NC(=O)[C@H](CC(=O)O)NC(C)=O)[C@@H](C)CC)[C@@H](C)CC)[C@@H](C)CC)C(C)C)C(=O)N[C@@H](Cc1ccc(O)cc1)C(=O)N[C@@H](CCC(=O)O)C(=O)N[C@@H](Cc1ccccc1)C(=O)N[C@@H](CCSC)C(=O)N[C@@H](CCCCN)C(=O)N[C@@H](CCCCN)C(=O)NCC(=O)NCCOCCNC(=O)[C@@H]1CSCC(=O)N[C@@H](C)C(=O)N[C@@H](CO)C(=O)N[C@@H](Cc2ccc(O)cc2)C(=O)N[C@@H](Cc2c[nH]cn2)C(=O)N[C@@H](CC(C)C)C(=O)NCC(=O)N[C@@H](CCC(=O)O)C(=O)N[C@@H](CC(C)C)C(=O)N[C@@H](C(C)C)C(=O)N[C@@H](Cc2c[nH]c3ccccc23)C(=O)N2Cc3ccccc3C[C@H]2C(=O)NC(C)(C)C(=O)N1 [Compound 159]	No Binding			
CC[C@H](C)[C@H](NC(=O)[C@H](CC(C)C)NC(=O)[C@H](CC(=O)O)NC(=O)[C@H](CO)NC(=O)[C@@H](NC(=O)[C@H](CCCNC(=N)N)NC(=O)[C@H](CCSC)NC(=O)[C@H](CO)NC(=O)[C@H](C)NC(=O)[C@H](CCC(=O)O)NC(=O)[C@H](C)NC(=O)[C@H](Cc1c[nH]cn1)NC(=O)CNC(=O)[C@H](CC(C)C)NC(=O)[C@H](CCC(=O)O)NC(=O)[C@H](CC(=O)O)NC(=O)[C@H](CC(C)C)NC(=O)[C@H](CC(C)C)NC(=O)[C@H](CCCNC(=N)N)NC(=O)[C@H](CCSC)NC(=O)[C@@H](NC(=O)[C@H](CCC(=O)O)NC(=O)[C@H](Cc1ccc(O)cc1)NC(=O)[C@@H](NC(=O)[C@H](CCCCN)NC(=O)[C@H](CCC(N)=O)NC(=O)[C@H](CC(C)C)NC(=O)[C@@H](NC(=O)[C@H](Cc1c[nH]c2ccccc12)NC(=O)[C@H](CCC(=O)O)NC(=O)[C@H](CCCCN)NC(=O)[C@H](CC(=O)O)NC(C)=O)[C@@H](C)CC)[C@@H](C)CC)[C@@H](C)CC)C(C)C)C(=O)N[C@@H](Cc1ccc(O)cc1)C(=O)N[C@@H](CCC(=O)O)C(=O)N[C@@H](Cc1ccccc1)C(=O)N[C@@H](CCSC)C(=O)N[C@@H](CCCCN)C(=O)N[C@@H](CCCCN)C(=O)NCC(=O)NCCOCCOCCOCCOCCOCCOCCOCCOCCC(=O)NCCOCCOCCOCCOCCOCCOCCOCCOCCC(=O)NCCOCCOCCOCCOCCOCCOCCOCCOCCC(=O)N[C@@H](CC(=O)O)C(=O)N[C@H]1CSSC[C@@H](C(=O)N[C@H](C(=O)O)[C@@H](C)O)NC(=O)[C@H](Cc2c[nH]c3ccccc23)NC(=O)[C@H](C(C)C)NC(=O)[C@H](CC(C)C)NC(=O)[C@H](CCC(=O)O)NC(=O)CNC(=O)[C@H](CC(C)C)NC(=O)[C@H](Cc2c[nH]cn2)NC(=O)[C@H](Cc2c[nH]c3ccccc23)NC(=O)[C@H](C)NC1=O [Compound 168]		< 1000 pM	67 pM	
Ac-DCAWHLGELVWCTILQKIYEIMRLLDELGHAEASMRVSDLIYEFMKK (disulfide 2-12) [Compound 122]	No Binding		> 100000 pM	
Ac-DKEWILQKIYEIMRLLDELGHAEASMRVSDLIYEFMKKGGGGGGGGGDCAWHLGELVWCT (disulfide 49-59) [Compound 166]		< 1000 pM	77 pM	
Ac-ILQKIYEICRLLDELGHAEASMRCSDLIYEFMKKGDCAWHLGELVWCT-NH2 (disulfide 9-24, 37-47) [Compound 141]			> 100000 pM	< 1 pM
Ac-QKIYEICRLLDELGHAEASMRCSDLIYEFMKKGDCAWHLGELVWCT-NH2 (disulfide 7-22, 35-45) [Compound 140]			> 100000 pM	1.73 pM
{CH2CO}-ASYHLGELVW[Tic][Aib]C[dE]ILQKIYEIMRLLDELGHAEASMRVSDLIYEFMKK (thioether N-13) [Compound 131]	No Binding			
